In the RNAGym collection of RNA variant scans (doi:10.7554/elife.90254):
The source gives no read counts; variants with many changes may rest on few reads.

B1: LINE1-mini (parent)
chain: GGCAGAGCUCAACACAGCGUGGCAAAGUGGCUGUGGCUAGACUGCC

Variants of: B1
Experiment: self-cleavage, relative activity (ratio to wild type); higher = more cleavage; in vitro, sequencing; the parent is a self-cleaving ribozyme

Variant	self-cleavage
G1C C10U G22A A24G	0.04
G1C A6G C13A U38G A41U	0.01
G1C C31U U43C	0
G1C A12C G19A	0.03
G1C A26C G29U C42A	0.01
G1C C8A A16C G33A G36C	0.06
G1C A4U A11C C13G G35C G40C G44A C46A	0
G1C C10G A14G	0.01
G1C A16C G17A	0.03
G1C A12C C18G G21U G40A	0.01
G1A U38C A39U	0.31
G1C A11C G29U	0.01
G1C A11G C18G G35U C45A	0
G1C C3A G5C A11G G33A	0.04
G1C C3U C8G G22U	0.05
G1C C18U C31G	0
G1C A6C G19U U20G G27A C46U	0.04
G1C C8G C18G	0
G1C C10G C18G U20G G27C	0.01
G1C C15U G22A G29A	0.18
G1C C3U C8U C13U C15A G21A A26C	0.11
G1C A12C A14G G22U	0.01
G1C A4C C42G G44U	0
G1C G2U G5A C8U G29A	0.05

Variant	self-cleavage
G1C C3A C8G C13G G17U A39U	0.02
G1A U34A C37G A39U	0.04
G1C A4U C8U	0.03
G1C C8G G33U	0.02
G1C C13G A16U A39C A41C C42U	0.01
G1C A14G C37A C42U	0
G1C A12C U20C U28A	0
G1C A16U C46A	0.03
G1C C10A A12C	0.01
G1C A6G G17U C31A	0.09
G1C A6G U9G C10A	0.02
G1C C3U G22U U43G C46U	0.01
G1C C31U U32G	0.02
G1C G2A A6C	0.04
G1C G2A A6G	0.1
G1C A14C G21U	0.02
G1C G2A C15U U20G G21C	0.09
G1C A11G U28C C45U	0.01
G1C A25U A26U C31A G33A	0.02
G1C C15U A41U	0.03
G1C C3A A6G C15G A16C U32G	0.01
G1C C3U G7C A16U	0.12
G1C A14G G19A G27A	0.17
G1C A12C G22C U34C A39G	0

Variant	self-cleavage
G1C A26C A41G	0.03
G1C A4G U20C U32G C37A	0.02
G1C C3U C18G G21C C37A	0.25
G1C C23G G27C	0.01
G1C C3A C15U C23U G29C C31G	0.15
G1C A11G A41U	0
G1C C15U C37U	0.01
G1C A4C A41G	0.06
G1C A12U A41U	0.01
G1C A4C C8G G27U G35A C45U	0.01
G1C G2C U43G	0.04
G1C C3A G7U C15A A16C	0.04
G1C C15U A26C	0.18
G1C C13A G33C	0.01
G1C A14G U28A	0.02
G1C G2U C18A	0.03
G1C C10G A14G C15A G19U C37A	0
G1C C13U G21C G29U	0.06
G1C A25U G27A C46U	0.19
G1C A12U G36U	0
G1C C18A G30C C46A	0.09
G1C C15A G30C U34C	0
G1C C10G A14C A16C U20C C37U	0.01
G1C C8U U9A	0.04

Variant	self-cleavage
G1C C3U A6U A11U	0.03
G1C C8U A11U	0.01
G1C C8G C15G G21C C31U	0.02
G1C C37A G40C G44A	0.04
G1C A14U A24C C46U	0
G1C G2A U9A G19A C23A	0.06
G1A U32G G33A	0.02
G1C A6C G19A U32C	0.02
G1C G2A G17A U20G A26C G29U	0.03
G1C G2A G7C G29U	0.07
G1C A6G G44U	0.09
G1C C13A G21C G30C G40C	0.01
G1C C8U C10G C13A G44C	0.01
G1C A24U C46A	0.09
G1C G2U C8G U32C G33A A41G C42A	0
G1C G2A C10A U34A G35A G36A	0
G1C A12C C31G U43A	0
G1C G2A G19A A25U	0.19
G1C A4C C18A G33C U38C	0.01
G1C C10A G30U	0.03
G1C G2A C3U A12G	0.01
G1C C8U A16U G35U	0.01
G1C C31U C37U	0.05
G1C G2U A11C U28A	0.02

Variant	self-cleavage
G1C A11G G40A	0
G1C C3U G44U	0.23
G1C C15A G33U C45U	0.03
G1C C10A G22A U38G	0.02
G1C C23A G30A	0.08
G1C C8A A16G G40U	0.01
G1C C13A G29A	0.11
G1C A14C G22U G30C	0.03
G1C A6C C8G U9C U28A U32A G40U	0.01
G1C C10U A11U C31G G40C U43C C45A	0
G1C A11C C31A A41C	0.01
G1C C3G A12C C37G C45U	0.01
G1C C3A A4U G5U A41U	0.05
G1C C42G C46A	0
G1C C10A G40U	0.02
G1C A16G A26U U34C	0.01
G1C C8U A26U G33A G40U U43C G44U	0.02
G1C C13A U38G	0.01
G1C G2U G5U	0.03
G1C G2U C15G C18A G19U A25G	0.01
G1C A16C G29U	0.07
G1C G2U C3U U32C	0.08
G1C A6G C13G C18A U28A G30C G33U	0.01
G1C A12C A25G U34C G35U C37G	0

Variant	self-cleavage
G1C C23G G36A G40C	0.05
G1C A6C C37G	0.02
G1C G2A C23U	0.07
G1C C3U A25G U28C C37U	0.03
G1C C23U U32A G35U A39C U43A	0
G1C C15U C23A A39C	0.05
G1C A6C C8G U9C U43A	0.01
G1C A24U C31G	0.02
G1C A25G C31G	0.01
G1C C10U A14G G21U	0.02
G1C G2A C10U	0.11
G1C C23G G44U	0.11
G1C A6C A14U	0.04
G1C C15A G17A A39U	0
G1C G2A U20G G22C G33U G35A	0.03
G1C C3U G5C C10A C15A A39C	0.02
G1C A24U A25G U38G C45A	0.02
G1C A12C C37G	0
G1C A4C G5C A12C G30C	0.03
G1C G2A A25U	0.26
G1C C10A U20G G30A	0.01
G1C C15U G17C C31U G36U	0.02
G1C A14U G22U	0.05
G1C C15G G27C U34A A39U C42G	0

Variant	self-cleavage
G1C G2A C15U	0.17
G1C A4C G17U C31A	0.15
G1C G2A U9C C10U G27U	0.02
G1C A11G A12G A26U C46A	0.01
G1C A11U G21A U38G	0
G1C C13U A14U C23A G27A G33U	0.02
G1C A6G A16G G29U	0.03
G1C C42A C46U	0.02
G1C C3U A14G A16U U20A G22C G30C U34A U43C	0.1
G1C C18G G22U U28C U43G	0
G1C C8A G19A	0.19
G1C A25G U32C U38C G40A	0.01
G1C C8U U9G G33C	0.02
G1C A12U U20A C45A	0.02
G1C C3G C10A A26U G29A	0.02
G1C A4G C10G C15G	0.01
G1C C18G A26G G36U	0.01
G1C G2U G5A G33C G35U	0.03
G1C C3A C10A G30U	0.02
G1C A4U C15U	0.01
G1C A11C C15A G44A	0.01
G1C C13U A16U C31A	0.02
G1C C13G A16G U34C	0
